Assay results taken from publication PMC9750858, “Rapid biosensor development using plant hormone receptors as reprogrammable scaffolds” (Nature Biotechnology, 2022).

Molecular target: T1, wild-type PYR1 (Arabidopsis thaliana, UniProt O49686)
T1 sequence (O49686 1-191): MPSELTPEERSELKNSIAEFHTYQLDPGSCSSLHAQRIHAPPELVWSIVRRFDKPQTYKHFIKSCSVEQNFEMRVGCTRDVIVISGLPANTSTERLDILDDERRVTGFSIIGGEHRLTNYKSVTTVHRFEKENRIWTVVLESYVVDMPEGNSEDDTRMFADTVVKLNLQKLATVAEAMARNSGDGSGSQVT
T1 sequence (Q9CAJ0 23-511 partner): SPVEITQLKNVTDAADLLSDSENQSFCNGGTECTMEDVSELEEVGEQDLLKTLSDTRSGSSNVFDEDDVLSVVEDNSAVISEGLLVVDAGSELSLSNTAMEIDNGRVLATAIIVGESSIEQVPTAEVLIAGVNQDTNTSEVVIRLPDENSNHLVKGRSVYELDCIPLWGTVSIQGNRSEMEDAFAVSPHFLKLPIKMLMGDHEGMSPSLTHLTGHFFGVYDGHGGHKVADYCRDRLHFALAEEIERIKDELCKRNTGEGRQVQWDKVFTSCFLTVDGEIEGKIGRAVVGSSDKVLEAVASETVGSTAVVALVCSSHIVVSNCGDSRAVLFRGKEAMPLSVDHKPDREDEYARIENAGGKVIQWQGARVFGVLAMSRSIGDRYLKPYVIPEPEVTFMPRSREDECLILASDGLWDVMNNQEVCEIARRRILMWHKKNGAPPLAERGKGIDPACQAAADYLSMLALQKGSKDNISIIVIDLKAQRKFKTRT
Settings: cannabinoids 25 µM, organophosphates 100 µM

Row | Compound | response of wild-type PYR1 to ligand
1 | CCOP(=S)(OCC)SCn1nnc2ccccc2c1=O [Azinphos-ethyl, azinphos-ethyl] | none of which activated wild-type PYR1
2 | CCOP(=O)(OCC)OC(=CCl)c1ccc(Cl)cc1Cl [Chlorfenvinphos, chlorfenvinphos] | none of which activated wild-type PYR1
3 | CCOP(=S)(OCC)Oc1cc(C)nc(C(C)C)n1 [Diazinon, diazinon] | none of which activated wild-type PYR1
4 | CNC(=O)CSP(=S)(OC)OC [Dimethoate, dimethoate] | none of which activated wild-type PYR1
5 | CCOP(=S)(OCC)SCCSCC [Disulfoton, disulfoton] | none of which activated wild-type PYR1
6 | COP(=S)(OC)Oc1ccc([N+](=O)[O-])cc1 [Parathion-methyl, parathion-methyl] | none of which activated wild-type PYR1
7 | CCN(CC)c1nc(C)cc(OP(=S)(OC)OC)n1 [Pirimiphos-methyl, pirimiphos-methyl] | none of which activated wild-type PYR1
8 | COP(=S)(OC)Oc1cc(Cl)c(Br)cc1Cl [bromophos, bromophos-methyl] | none of which activated wild-type PYR1
9 | CCOC(=O)CC(SP(=S)(OC)OC)C(=O)OCC (stereo not shown) [malathion] | none of which activated wild-type PYR1
10 | CNC(=O)/C=C(\C)OP(=O)(OC)OC [monocrotophos] | none of which activated wild-type PYR1
